# The supplement of paper PMC9135407
# Several values for one entry are separate records, joined by “and”; a condition that tells them apart may be missing. Identical values can stand only once. Counter-ions that a name gives are not always drawn. The campaign covered roughly 5,800 compounds. About 620 (11%) showed activity.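 How the source made its calls: active = score above a cut-off or among the top three wells of a plate; in these data no inactive exceeds 0.85.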 The entries are a selection whose mix differs from that of the whole data set.
# Tested on: primary human hepatic stellate cells (donor 1)
# Assay: scaled lipid accumulation score (0 = DMSO-like, 1 = nortriptyline-like); higher = stronger HSC inactivation (lipid re-accumulation), active = hit call of the paper
# Details: 48 h
# Experimental: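 Primary lipid accumulation screen in primary human hepatic stellate cell myofibroblasts (donor 1, passage 8) in 384-well plates. 100 nL of library compound was pin-transferred into 30 µL medium in duplicate, and cells were treated for 48 h. The 'Scaled' score combines distance from plate baseline, toxicity and reproducibility penalties, and is normalised to nortriptyline (positive) and DMSO (negative) controls on each plate. A hit is defined as scaled >0.85 or among the top 3 wells per plate.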
# [1] = library stock concentration: 3.33 mM
# [2] = library stock concentration: 10 mM
# [3] = library stock concentration: 1 mM
# [4] = library stock concentration: 13.2 mM
smiles,measurement,setting,value
C[C@H]1C[C@@H]2[C@H]([C@@H](O)C[C@@]3(C)[C@H]2CC[C@]3(O)C(=O)COC(=O)CCC(=O)O)[C@@]2(C)C=CC(=O)C=C12 [Methylprednisolone sodium succinate],scaled lipid accumulation score,library stock concentration: 4 mM,inactive: 0.015
Fc1cc(-c2cccc3ncc(-c4cnn(C5CCNCC5)c4)nc23)cc(F)c1CN1CCOCC1,scaled lipid accumulation score,[1],inactive: 0.784
same,scaled lipid accumulation score,[2],inactive: 0.433
COC(=O)/C=C/C(=O)N(O)CCCCNCc1ccc(COC(=O)Nc2cccc3ccccc23)cc1 [Methylstat],scaled lipid accumulation score,library stock concentration: 80 uM,inactive: ≤ 0
same,scaled lipid accumulation score,library stock concentration: 400 uM,inactive: ≤ 0
same,scaled lipid accumulation score,library stock concentration: 2 mM,inactive: ≤ 0
same,scaled lipid accumulation score,[2],inactive: 0.26
COc1ccc(C[C@@H]2c3cc(OC)c(OC)cc3CC[N@+]2(C)CCC(=O)OCCCCCOC(=O)CC[N@@+]2(C)CCc3cc(OC)c(OC)cc3[C@H]2Cc2ccc(OC)c(OC)c2)cc1OC [Cisatracurium Besylate],scaled lipid accumulation score,[1],inactive: ≤ 0
same,scaled lipid accumulation score,[2],inactive: ≤ 0
Nc1cc(-c2ccncc2)c[nH]c1=O [Amrinone],scaled lipid accumulation score,,inactive: ≤ 0
Nc1cc(-c2ccncc2)c[nH]c1=O,scaled lipid accumulation score,[2],inactive: ≤ 0
CCOC(=O)c1c(C)n(C)c2ccc(O)cc12 [Mecarbinate],scaled lipid accumulation score,[1],inactive: ≤ 0
same,scaled lipid accumulation score,[2],inactive: 0.009
CS(=O)(=O)Nc1ccc([N+](=O)[O-])cc1OC1CCCCC1,scaled lipid accumulation score,[3],inactive: ≤ 0
CC(N)C12CC3CC(CC(C3)C1)C2 (stereo not given) [Rimantadine],scaled lipid accumulation score,[1],inactive: ≤ 0
same,scaled lipid accumulation score,[2],inactive: 0.113
CC(N)C12CC3CC(CC(C3)C1)C2 (stereo not given) [Rimantadine hydrochloride],scaled lipid accumulation score,library stock concentration: 9.3 mM,inactive: 0.404
COc1cc(Nc2ncc(F)c(Nc3ccc4c(n3)NC(=O)C(C)(C)O4)n2)cc(OC)c1OC [R406 (free base)],scaled lipid accumulation score,[1],active: 0.918
same,scaled lipid accumulation score,[2],active: 1.16
COC(=O)C(N)CS (stereo not given) [Mecysteine hydrochloride],scaled lipid accumulation score,[2],inactive: ≤ 0
CCCCCCCCCCCCCCCC(=O)NCCc1ccc(O)c(O)c1 [N-Palmitoyl Dopamine],scaled lipid accumulation score,[3],inactive: ≤ 0
CSc1nc(-c2ccnc(NC(C)c3ccccc3)c2)c(-c2ccc(F)cc2)[nH]1 (stereo not given) [p38 MAP Kinase Inhibitor III],scaled lipid accumulation score,[1],inactive: ≤ 0
Brc1c(NC2=NCCN2)ccc2nccnc12,scaled lipid accumulation score,[2],inactive: ≤ 0 and inactive: 0.02
Brc1c(NC2=NCCN2)ccc2nccnc12 [Brimonidine Tartrate],scaled lipid accumulation score,[1],inactive: ≤ 0
same,scaled lipid accumulation score,[2],inactive: ≤ -0.001
"Brc1c(NC2=NCCN2)ccc2nccnc12 [UK 14,304 tartrate]",scaled lipid accumulation score,[2],inactive: ≤ -0.001
CN(C)CCOC(=O)COc1ccc(Cl)cc1 [Meclofenoxate hydrochloride],scaled lipid accumulation score,,inactive: ≤ 0
same,scaled lipid accumulation score,[2],inactive: ≤ -0.027
CN(C)CCOC(=O)COc1ccc(Cl)cc1 [Centrophenoxine hydrochloride],scaled lipid accumulation score,[2],inactive: 0.032
CN(C)CCOC(=O)COc1ccc(Cl)cc1 [Meclofenoxate (Centrophenoxine) HCl],scaled lipid accumulation score,[1],inactive: ≤ 0
same,scaled lipid accumulation score,[2],inactive: 0.043
N#C/C(=C\c1ccc(O)c(O)c1)C(=O)NCCCNC(=O)/C(C#N)=C/c1ccc(O)c(O)c1 [Tyrphostin AG 537],scaled lipid accumulation score,[2],inactive: ≤ 0
O=C(OCc1ccccc1)c1ccccc1 [Benzyl benzoate],scaled lipid accumulation score,library stock concentration: 9.4 mM,inactive: ≤ 0
same,scaled lipid accumulation score,[2],inactive: 0.008
CCCc1nc(C(C)(C)O)c(C(=O)O)n1Cc1ccc(-c2ccccc2-c2nnn[nH]2)cc1 [Olmesartan],scaled lipid accumulation score,library stock concentration: 3.6 mM,inactive: 0.042
C(=C/CCNC)(/c1c(cccc1)CC2)\c3c2cccc3 [Nortriptyline],scaled lipid accumulation score,library stock concentration: 7.6 mM,active: 0.971
O=C(O)/C=C\C(=O)O.O=C(O)/C=C\C(=O)O.c1cc(CN2CCCCC2)cc(OCCCNc2nc3ccccc3s2)c1,scaled lipid accumulation score,[2],active: 1.03
N[C@H](C(=O)O)[C@H](OCc1ccccc1)C(=O)O (racemic),scaled lipid accumulation score,[2],inactive: ≤ -0.006
Cc1ccc2c(Cl)cc(Cl)c(O)c2n1,scaled lipid accumulation score,[2],inactive: ≤ 0
Cc1ccc2c(Cl)cc(Cl)c(O)c2n1 [Chlorquinaldol],scaled lipid accumulation score,[1],inactive: ≤ 0
same,scaled lipid accumulation score,[2],inactive: 0.307
"OC(CCN1CCCCC1)(c1ccccc1)C1CCCCC1 (stereo not given) [Trihexyphenidyl-D,L Hydrochloride]",scaled lipid accumulation score,,inactive: 0.42
OC(CCN1CCCCC1)(c1ccccc1)C1CCCCC1 (stereo not given) [Trihexyphenidyl hydrochloride],scaled lipid accumulation score,library stock concentration: 5.9 mM,inactive: 0.376
same,scaled lipid accumulation score,[2],inactive: 0.008 and inactive: 0.478
COc1ccc2[nH]c([S+]([O-])Cc3ncc(C)c(OC)c3C)nc2c1 (stereo not given) [Omeprazole],scaled lipid accumulation score,,inactive: ≤ 0
same,scaled lipid accumulation score,[1],inactive: 0.017
same,scaled lipid accumulation score,library stock concentration: 5.8 mM,inactive: ≤ 0
same,scaled lipid accumulation score,[2],inactive: ≤ 0 and inactive: ≤ -0.001
COc1ccc2[nH]c([S+]([O-])Cc3ncc(C)c(OC)c3C)nc2c1 (stereo not given),scaled lipid accumulation score,[2],inactive: ≤ 0
COC(=O)C(C)c1ccc(C(=O)c2cccs2)cc1 (stereo not given) [Suprofen methyl ester],scaled lipid accumulation score,[2],inactive: ≤ 0
CCCCC[C@H](O)/C=C/[C@H]1C(=O)C[C@H](O)[C@@H]1C/C=C\CCCC(=O)O [Prostaglandin D2],scaled lipid accumulation score,[3],inactive: ≤ 0
CCCCC[C@H](O)/C=C/[C@H]1C(=O)C[C@H](O)[C@@H]1C/C=C\CCCC(=O)O [Prostaglandin  D2],scaled lipid accumulation score,[3],inactive: ≤ -0.021
COc1cc(OC)c(C(=O)CCCCN2CCC3(CC2)NC(=O)NC3=O)cc1NS(=O)(=O)c1ccc(C(F)(F)F)cc1.Cl,scaled lipid accumulation score,[2],active: 0.941
NC(=S)N/N=C/c1ncccc1N [Triapine],scaled lipid accumulation score,[1],inactive: ≤ -0.009
same,scaled lipid accumulation score,[2],inactive: ≤ 0
O=C(O)CCC/C=C\C[C@H]1[C@@H](O)CC(=O)[C@@H]1/C=C/[C@@H](O)CCc1ccccc1 [17-phenyl trinor Prostaglandin D2],scaled lipid accumulation score,[3],inactive: ≤ 0
CC(=O)Nc1ccc(O)cc1 [Acetaminophen],scaled lipid accumulation score,,inactive: ≤ 0
same,scaled lipid accumulation score,[2],inactive: ≤ 0 and inactive: ≤ -0.006
same,scaled lipid accumulation score,[4],inactive: ≤ -0.001
CC(=O)Oc1c(C)c(C)c2c(c1C)CCC(C)(CCCC(C)CCCC(C)CCCC(C)C)O2 (stereo not drawn) [Alpha-tochopheryl acetate],scaled lipid accumulation score,[2],inactive: 0.117
O=C1N[C@@H]2[C@@H](O)[C@@H](O)[C@H](O)[C@@H](CO)N2C1=O [Kifunensine],scaled lipid accumulation score,[3],inactive: 0.034
Nc1nc(SCc2ccc([N+](=O)[O-])cc2)c2ncn([C@@H]3O[C@H](CO)[C@H](O)C3O)c2n1 (stereo partly drawn) [S-(4-Nitrobenzyl)-6-thioguanosine],scaled lipid accumulation score,[2],inactive: 0.41
O=S(=O)(O)CCCS(=O)(=O)O,scaled lipid accumulation score,[2],inactive: ≤ 0
COc1ccc(NS(=O)(=O)c2sc3ccc(Cl)cc3c2C)cc1N1CCNCC1,scaled lipid accumulation score,[2],active: 1.31
O=C(NS(=O)(=O)c1ccc(Br)s1)c1ccc(Cl)cc1Cl [Tasisulam],scaled lipid accumulation score,[1],inactive: ≤ -0.009
same,scaled lipid accumulation score,[2],inactive: ≤ 0
O=C1NCN(c2ccccc2)C12CCN(CCCC(c1ccc(F)cc1)c1ccc(F)cc1)CC2 [Fluspirilene],scaled lipid accumulation score,[2],active: 1.02
O=C(O)c1ccc2c3c1cccc3c(=O)n1c3ccccc3nc21,scaled lipid accumulation score,[1],inactive: ≤ 0
Cn1c2ccccc2c2c3c(c4c5ccccc5n(CCC#N)c4c21)CNC3=O,scaled lipid accumulation score,[1],inactive: ≤ 0
same,scaled lipid accumulation score,[4],inactive: 0.297
OCCOCCN1CCN(C(c2ccccc2)c2ccc(Cl)cc2)CC1 (stereo not given) [Hydroxyzine 2HCl],scaled lipid accumulation score,[1],inactive: 0.1
same,scaled lipid accumulation score,[2],inactive: 0.631
OCCOCCN1CCN(C(c2ccccc2)c2ccc(Cl)cc2)CC1 (stereo not given) [Hydroxyzine dihydrochloride],scaled lipid accumulation score,,inactive: 0.453
OCCOCCN1CCN(C(c2ccccc2)c2ccc(Cl)cc2)CC1 (stereo not given) [Hydroxyzine pamoate],scaled lipid accumulation score,library stock concentration: 2.6 mM,inactive: 0.044
same,scaled lipid accumulation score,[2],inactive: 0.142
C=CC1=C(C(=O)O)N2C(=O)[C@@H](NC(=O)/C(=N\OCC(=O)O)c3csc(N)n3)[C@H]2SC1,scaled lipid accumulation score,[2],inactive: ≤ 0
C=CC1=C(C(=O)O)N2C(=O)[C@@H](NC(=O)/C(=N\OCC(=O)O)c3csc(N)n3)[C@H]2SC1 [Cefixime],scaled lipid accumulation score,,inactive: ≤ 0
N#CCNC(=O)c1ccc(-c2ccnc(Nc3ccc(N4CCOCC4)cc3)n2)cc1,scaled lipid accumulation score,[1],active: 1.05
same,scaled lipid accumulation score,[2],active: 0.922
Cc1cc(-n2c(=O)[nH]c(=O)n(C)c2=O)ccc1Oc1ccc(SC(F)(F)F)cc1 [Toltrazuril],scaled lipid accumulation score,[1],inactive: ≤ 0
same,scaled lipid accumulation score,library stock concentration: 4.7 mM,inactive: ≤ 0
same,scaled lipid accumulation score,[2],inactive: ≤ -0.001
Cc1ccccc1N1C(=O)c2cc(S(N)(=O)=O)c(Cl)cc2NC1C (stereo not given) [Metolazone],scaled lipid accumulation score,,inactive: 0.156
same,scaled lipid accumulation score,[1],inactive: ≤ 0
CC(C)COC(=O)c1ccc(N)cc1,scaled lipid accumulation score,[2],inactive: 0.122
CN(C)CCCOc1nn(Cc2ccccc2)c2ccccc12.Cl [Benzydamine HCl],scaled lipid accumulation score,[2],active: 1.08
O=C1N(c2ccccc2)c2ccccc2C1(Cc1ccncc1)Cc1ccncc1 [Linopirdine],scaled lipid accumulation score,[2],inactive: ≤ -0.051
O=C1N(c2ccccc2)c2ccccc2C1(Cc1ccncc1)Cc1ccncc1 [Linopirdine dihydrochloride],scaled lipid accumulation score,[2],inactive: ≤ -0.001
O=C1N(c2ccccc2)c2ccccc2C1(Cc1ccncc1)Cc1ccncc1,scaled lipid accumulation score,[2],inactive: ≤ 0
[I-].[K+] [Potassium Iodide],scaled lipid accumulation score,[1],inactive: ≤ 0
same,scaled lipid accumulation score,[2],inactive: ≤ 0
COc1ccc2cc1Oc1ccc(cc1)C[C@@H]1c3c(cc4c(c3Oc3cc5c(cc3OC)CCN(C)[C@H]5C2)OCO4)CCN1C [Cepharanthine],scaled lipid accumulation score,[1],active: 1.03
CC(=O)N1CCN(CCOc2ccc(C3CCN(C4=Nn5c(nnc5C(F)(F)F)CC4)CC3)cc2)CC1,scaled lipid accumulation score,[1],inactive: ≤ 0
same,scaled lipid accumulation score,[2],inactive: 0.455
CCCCC[C@H](O)/C=C/C=C\C=C\C=C\[C@@H](O)[C@@H](O)CCCC(=O)O [Lipoxin A4],scaled lipid accumulation score,library stock concentration: 100 uM,inactive: ≤ -0.021
